Reference: the RNAGym collection of RNA variant scans (doi:10.1093/nar/gkz1192)
Read counts are not given, so values of variants with three or more changes are uncertain.

B1: CPEB3 Ribozyme (parent)
chain: UAACAGGGGGCCACAGCAGAAGCGUUCACGUCGCAGCCCCUGUCAGAUUCUGGUGAAUCUGCGAAUUCUGCUGUAUAUCUC

Variants of: B1
Test: self-cleavage, relative activity (ratio to wild type); higher = more cleavage; in vitro, sequencing
Procedure, shortened: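 After error-prone PCR and barcoding, CPEB3 ribozyme mutant libraries were transcribed with T7 RNA polymerase at 37°C for 5 hours, then given 15 min with DNase I before an EDTA stop, and they cleaved during both steps. Reverse transcription with template switching preceded Illumina sequencing. Relative activity divides a variant's cleaved/total read fraction by the unmutated ribozyme's. At least 5 reads were required per variant, and three batches were averaged.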

Variant	self-cleavage
A5G A15G U69A	0.41
A5G A20G A35C A56G U78C	0.15
A5G A13U A45U	0.57
C4U U60C U69C	0.7
A5G A15G C37U U41A G63U	0.31
A5C C44U G53C U54C A64U	0.28
A5G A13U A21G	0.6
A5G A18U U26C U51G A77U	0.12
A5G A13C U41C A75G	0.36
A5G A15U A18G A21G A47G	0.36
A5C U25C A47G U67C	0.43
A5C G10A A15G C40U U43C U54A	0.46
A5G A15G U41C U48C G55A A64G	0.1
A5G A15G A20G U48C	0
A5G A18C A20U A35G U41A	0.47
A5G A18G U43C U48C U58C	0.19
A5G A15U A75U	0.62
A5G A13U U80A	0.76
A5C C12U A13U U48C U69A U72C	0.27
A5G A18U U26A C29G U31C U41C U54A	0.03
A5G A15U U72C	0.43
A5C G19A U31A A45G U60C	0.03
A5C U49A U51A U58C	0.1
A5C A18G U54A C62U	0.35

Variant	self-cleavage
A5C G24A U54C	0.18
A5G A20G C29A	0.09
A5G A15G U26C U41A A64U	0.13
A5G A13C U26C G73U U76C	0.67
A5G A15U G19C C32U C38U U69A	0.07
A5C A20U A56C	0.16
A5G A18C U31C	0.54
A5C U31C U48C U51C U80C	0.3
A5G A18G U78C	0.33
A5C A13U A28C A57G U60A	0.07
A5G A18U G19U A28G C34U A45G	0.05
A5G A15G A18U A28G A45G U72C	0
A5C A64G U74C A75G	0.8
A5G A20G C71U	0.22
A5C G9U A15G A28U	0.48
A5G A15G A56G	0.55
A5G A15G U25C G33A G46A U51A A77G	0.22
A5G A13G U72C	0.68
A5G A13U U31C	0.65
A5C U48C G73C	1.1
A5C A20G C34U U48C U66C U72A A75U	0.02
A5C U31C A35U A47U U49A U74C	0.05
A5G A18U A28G U31G U54C U72C U78C	0.07
A5G A15G C17U A56G	0.54

Variant	self-cleavage
A5G A18C G30U	0.09
A5C U31C U67C U78C U80A	0.19
A5C U41A U69C	0.25
C4U U41G A56G U74C	0.46
A5G A18G U66C	0.24
A5G A20G A28C U51A G55U U72C	0.06
C4U U31G U80C	0.83
A5G A18G A21G C27A	0.46
A5C A45G U72C U78G	0.42
A5C U41A A64G G73A U80C	0.12
A5G A15G C17G A20G A75U	0.61
A5C C23U A56G	0.36
A5C C11U A18G U51C	0.35
A5G A20G G30A U43C U49A	0.36
A5G A18G A35U U51C A56G A77G	0.08
A5C C17U A28G A35G A47G	0.57
A5G A18G A57U U58C A64C U78C	0.1
C4U U51G A56G A57G U74A	1
A5G A20G A21G U25C A65G	0.51
A5G A15C U41A	0.3
A5G A18U U31A U51G A56U	0.29
A5G A13G C23U A57G G61A U80A	0.07
A5G A20G A45G A57U U66C U72A	0.08
A5G A18U C32A	0.3

Variant	self-cleavage
A5G A15U C39A U80C	0.13
A5G A15U G24A U58C U78C	0.33
A5G A15U U58A	0.14
A5G A13G A28G U31C C37G G46U A65G	0.44
A5C C44A U48A U78C	0.15
A5G A20G A35U U76C	0.16
A5C A45C U74A	1.02
A5G A13U U41A U72A	0.66
A5G A13G A28U A56G U67C	0.28
A5G A15G A28G A47U U60C	0.16
A5C A18G U31A A65G U72C	0.21
A5G A18U C38U U49A A65G	0.08
C4U U41A U51C U54C U60C C62U	0.27
A5G A18G U54A	0.85
A5G A18U U43A	0.53
A5G A13G A47G U58C	0.52
A5C A35C U80G	0.57
A5G A18G A21G C62A U66C	0.11
A5G A15U C29A A45U U74C	0.07
A5C U54C U60C U72C U80G	0.79
A5G A20G A35U U67C	0.61
A5G A15U A21G A64G	0.06
A5C G9U A21G U25A A28U	0.31
A5C U31A U48C U51A	0.19

Variant	self-cleavage
A5G A13G U26A G36C	0.63
A5G A15C U26C	0.13
A5C C14U U25C A56G	0.44
A5G A13G C17U G24A A45U U54C	0.05
A5G A13G A28G U49C	0.05
A5G A15C U41G G70A U78A	0.03
A5G A18U A20G	0.79
A5G A15G U25C A57U	0.6
C4U U43C A47G U49C	0.24
A5G A18C U72C A75G U78A	0.62
A5G A15G U25A C38A	0.15
A5G A15G C59U U78C	0.33
A5G A13G U26A G33C A47U U48C U78C	0.06
A5G A13G G33U A57G U69C	0.1
A5G A15G A18G U54G U80A	0.7
A5G A15U A18U U26C G30U G52A	0.38
A5G A13G A28U	0.29
A5G A13G A20G A21U A35G U41C	0
A5G A13G A18G U26C G33A U67C	0.38
A5C U25C U48C	0.11
A5G A13U U25C A56U U60A C68A A77U	0.05
A5C A13G A21U U25C G30C G33A G42A	0.06
A5C A15U A35C U51C A57U C71A U78C	0.04
A5C A15U U49C U69C U72C U78C	0.14

Variant	self-cleavage
A5C U72A U78C	0.86
A5G A18G A35G U72C	0.35
A5G A15G A65G	0.34
A5C A45G U48C	0.49
A5G A15C U60G A65G U72G	0.15
C4U U49A A56G U80A	0.96
A5G A13G G24A U43A U72A	0.32
A5C A20U C44A A45G	0.34
A5G A20G A21G A56G U60C G61C	0.06
A5C A13G U31A U51A	0.98
A5G A18U U69A U76C	0.85
A5C A18U C38U	0.15
A5C U31A A35G U49A U67C G70A U76C	0.58
A5C U67C U76C	0.26
A5G A15U A28C U31A U67C	0.11
A5G A13G C40A A64G	0.1
A5C U48C U69C U72C U78G	0.23
A5G A15G U41C A56U	0.12
A5G A13U U43G U66C U72C	0.18
A5G A15G A20U	0.69
A5C A18C A20G U25G U76A	0.55
A5G A15G G30C C59G	0.02
A5G A20G A75U	0.95
A5C A21G U60C A65G	0.14

Variant	self-cleavage
A5G A13U A20G G22A A56G	0.15
A5C C62A A77G	0.27
A5G A18G G42A U43C G70U	0.07
A5G A13G A18G C40G	0.23
A5G A18U A28G U58C	0.09
A5G A20G C32G C39U U58C U76A A77G	0.1
A5C U25C A65U	0.29
A5G A15U A18U A75C U80C	0.44
A5G A13G G24C C29U A77G	0.44
A5G A18G A21G C29A	0.5
A5G A20G G63C A64G U80C	0.31
A5G A20G C38G U51C U72C	0.09
A5G A20G A28C G52A	0.38
A5C U43C A45G A47G	0.08
A5G A18U U26C A64U U69C	0.21
A5C G8U A21G A35U	0.17
A5G A13G A18G U26A U48C A56G	0.17
A5C G10A A56G U76A	0.37
A5G A13U G24A A35U U43A A56G	0.38
A5G A13G A35U U51A U78A	0.74
A5G A13U A20U	0.19
A5C A21G U31C U43C U60C A65G U74C	0.2
A5G A18G U26A A28G A56G C62U U78C	0.06
